From the supplement of paper PMC12217912
Some of the results follow. The full chains were built here from the parent and the listed change. Inactive controls read about 0.05.

B1: TEV protease; numbered along this chain (parent)
chain: MGESLFKGPRDYNPISSSICHLTNESDGHTTSLYGIGFGPFIITNKHLFRRNNGTLVVQSLHGVFKVKDTTTLQQHLVDGRDMIIIRMPKDFPPFPQKLKFREPQREERICLVTTNFQTKSMSSMVSDTSCTFPSGDGIFWKHWIQTKDGQCGSPLVSTRDGFIVGIHSASNFTNTNNYFTSVPKNFMELLTNQEAQQWVSGWRLNADSVLWGGHKVFMVKPEEPFQPVKEATQL

Variants of: B1
Assay: raw area under fraction-flipped curve 0-4 h after induction (AUC4h, not background-subtracted), DNA-recorder readout of cleavage of the substrate (dimensionless); higher = more cleavage of the substrate by the protease variant
Conditions: temperature: 34 °C; time window: 0-4 h after rhamnose induction
Method: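 In vivo DNA recorder in E. coli TOP10(DE3) ΔrhaA at 34 °C. Each TEVp single-site mutant (parent TEVp 0) is paired with a single-site variant of the 7-mer TEVs (canonical ENLYFQ|S). The substrate sits between flexible linkers in a Bxb1-sfGFP-TEVs-SsrA fusion, so cleavage stabilises Bxb1 and speeds flipping of a recombination array, read by NGS. The value is the raw area under the fraction-flipped curve over 0-4 h after rhamnose induction (AUC4h), with ≥20 reads per time point. It is not background-subtracted; inactive controls average about 0.047.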
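Further: Bxb1 expression induced with 0.2% (w/v) L-rhamnose at OD600 near 0.5, cultures sampled hourly, flipped fraction per protease–substrate barcode pair counted by paired-end Illumina sequencing.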

Variant	area with substrate ENLAFQS	area with substrate ENLDFQS	area with substrate ENLFFQS	area with substrate ENLGFQS	area with substrate ENLHFQS	area with substrate ENLIFQS	area with substrate ENLKFQS	area with substrate ENLNFQS	area with substrate ENLPFQS	area with substrate ENLQFQS	area with substrate ENLSFQS	area with substrate ENLCFQS	area with substrate ENLEFQS	area with substrate ENLRFQS	area with substrate ENLTFQS	area with substrate ENLWFQS	area with substrate ENLLFQS	area with substrate ENLVFQS	area with substrate ENLMFQS
MGESLFNGPRDYNPISSSICHLTNESDGHTTSLYGIGFGPFIITNKHLFRRNNGTLVVQSLHGVFKVKDTTTLQQHLVDGRDMIIIRMPKDFPPFPQKLKFREPQREERICLVTTNFQTKSMSSMVSDTSCTFPSGDGIFWKHWIQTKDGQCGSPLVSTRDGFIVGIHSASNFTNTNNYFTSVPKNFMELLTNQEAQQWVSGWRLNADSVLWGGHKVFMVKPEEPFQPVKEATQL [K7N]	0.0623	0.0645	0.107	0.063	0.0626	0.0979	0.0766	0.0745	0.0715	0.0691	0.0747	–	–	–	–	–	–	–	–
MGESLFPGPRDYNPISSSICHLTNESDGHTTSLYGIGFGPFIITNKHLFRRNNGTLVVQSLHGVFKVKDTTTLQQHLVDGRDMIIIRMPKDFPPFPQKLKFREPQREERICLVTTNFQTKSMSSMVSDTSCTFPSGDGIFWKHWIQTKDGQCGSPLVSTRDGFIVGIHSASNFTNTNNYFTSVPKNFMELLTNQEAQQWVSGWRLNADSVLWGGHKVFMVKPEEPFQPVKEATQL [K7P]	0.0737	0.068	–	–	–	0.0674	0.0816	0.0657	0.0535	–	0.0703	0.0797	0.0637	0.0757	0.0578	0.0652	–	–	–
MGESLFKGPRDYNPISSSICHLTNESDGHTTSLNGIGFGPFIITNKHLFRRNNGTLVVQSLHGVFKVKDTTTLQQHLVDGRDMIIIRMPKDFPPFPQKLKFREPQREERICLVTTNFQTKSMSSMVSDTSCTFPSGDGIFWKHWIQTKDGQCGSPLVSTRDGFIVGIHSASNFTNTNNYFTSVPKNFMELLTNQEAQQWVSGWRLNADSVLWGGHKVFMVKPEEPFQPVKEATQL [Y34N]	0.0711	0.0647	0.0977	–	–	–	0.0572	0.0643	0.0497	–	0.0611	–	–	0.0836	–	–	0.0583	–	–
MGEFLFKGPRDYNPISSSICHLTNESDGHTTSLYGIGFGPFIITNKHLFRRNNGTLVVQSLHGVFKVKDTTTLQQHLVDGRDMIIIRMPKDFPPFPQKLKFREPQREERICLVTTNFQTKSMSSMVSDTSCTFPSGDGIFWKHWIQTKDGQCGSPLVSTRDGFIVGIHSASNFTNTNNYFTSVPKNFMELLTNQEAQQWVSGWRLNADSVLWGGHKVFMVKPEEPFQPVKEATQL [S4F]	0.0701	0.0631	0.0988	–	0.079	0.111	0.0974	0.059	–	–	0.0646	0.086	0.0642	0.083	0.0823	–	0.0794	0.0949	–
MGESLFKGPRDYNVISSSICHLTNESDGHTTSLYGIGFGPFIITNKHLFRRNNGTLVVQSLHGVFKVKDTTTLQQHLVDGRDMIIIRMPKDFPPFPQKLKFREPQREERICLVTTNFQTKSMSSMVSDTSCTFPSGDGIFWKHWIQTKDGQCGSPLVSTRDGFIVGIHSASNFTNTNNYFTSVPKNFMELLTNQEAQQWVSGWRLNADSVLWGGHKVFMVKPEEPFQPVKEATQL [P14V]	0.0675	0.0646	0.0867	0.0544	0.0611	0.0635	0.053	0.0659	0.0724	0.0881	0.0695	0.068	0.0612	0.0768	–	0.054	0.0647	–	–
MGESLFKGPRDYNQISSSICHLTNESDGHTTSLYGIGFGPFIITNKHLFRRNNGTLVVQSLHGVFKVKDTTTLQQHLVDGRDMIIIRMPKDFPPFPQKLKFREPQREERICLVTTNFQTKSMSSMVSDTSCTFPSGDGIFWKHWIQTKDGQCGSPLVSTRDGFIVGIHSASNFTNTNNYFTSVPKNFMELLTNQEAQQWVSGWRLNADSVLWGGHKVFMVKPEEPFQPVKEATQL [P14Q]	0.0669	0.063	0.0897	–	0.0747	0.1	0.0866	0.069	0.061	–	0.0625	–	–	0.0903	–	0.0539	–	–	–
MGESLFKGPRDYNPISSSICHLTNESDGHTTSLYQIGFGPFIITNKHLFRRNNGTLVVQSLHGVFKVKDTTTLQQHLVDGRDMIIIRMPKDFPPFPQKLKFREPQREERICLVTTNFQTKSMSSMVSDTSCTFPSGDGIFWKHWIQTKDGQCGSPLVSTRDGFIVGIHSASNFTNTNNYFTSVPKNFMELLTNQEAQQWVSGWRLNADSVLWGGHKVFMVKPEEPFQPVKEATQL [G35Q]	0.033	0.0596	0.0034	0.0319	0.0497	0.0311	–	0.0461	–	–	–	–	–	–	–	0.0332	–	–	–
MGESLFKGPRDYNPISSSICHLTNESDGHTTSLYGIGFGPRIITNKHLFRRNNGTLVVQSLHGVFKVKDTTTLQQHLVDGRDMIIIRMPKDFPPFPQKLKFREPQREERICLVTTNFQTKSMSSMVSDTSCTFPSGDGIFWKHWIQTKDGQCGSPLVSTRDGFIVGIHSASNFTNTNNYFTSVPKNFMELLTNQEAQQWVSGWRLNADSVLWGGHKVFMVKPEEPFQPVKEATQL [F41R]	0.0536	0.0505	0.0569	–	0.0476	–	0.0627	0.0479	0.0514	0.0548	0.0679	0.06	0.0539	–	0.0615	0.0376	–	0.0698	0.0342
MGESLFKGPRDYNPISSSICHLTNESDGHTTSLYGIGFGPCIITNKHLFRRNNGTLVVQSLHGVFKVKDTTTLQQHLVDGRDMIIIRMPKDFPPFPQKLKFREPQREERICLVTTNFQTKSMSSMVSDTSCTFPSGDGIFWKHWIQTKDGQCGSPLVSTRDGFIVGIHSASNFTNTNNYFTSVPKNFMELLTNQEAQQWVSGWRLNADSVLWGGHKVFMVKPEEPFQPVKEATQL [F41C]	0.0646	–	–	0.0999	0.0786	0.0831	0.119	0.0661	0.0317	–	0.0691	0.0768	0.0711	0.0967	–	0.0791	–	–	0.0598
MGESYFKGPRDYNPISSSICHLTNESDGHTTSLYGIGFGPFIITNKHLFRRNNGTLVVQSLHGVFKVKDTTTLQQHLVDGRDMIIIRMPKDFPPFPQKLKFREPQREERICLVTTNFQTKSMSSMVSDTSCTFPSGDGIFWKHWIQTKDGQCGSPLVSTRDGFIVGIHSASNFTNTNNYFTSVPKNFMELLTNQEAQQWVSGWRLNADSVLWGGHKVFMVKPEEPFQPVKEATQL [L5Y]	0.0712	0.0292	0.0693	–	–	–	–	0.0615	–	–	0.0479	–	–	–	–	0.0193	–	–	0.0627
MGESLFKGPRDYNPISSSICHLTNESYGHTTSLYGIGFGPFIITNKHLFRRNNGTLVVQSLHGVFKVKDTTTLQQHLVDGRDMIIIRMPKDFPPFPQKLKFREPQREERICLVTTNFQTKSMSSMVSDTSCTFPSGDGIFWKHWIQTKDGQCGSPLVSTRDGFIVGIHSASNFTNTNNYFTSVPKNFMELLTNQEAQQWVSGWRLNADSVLWGGHKVFMVKPEEPFQPVKEATQL [D27Y]	0.0612	0.0723	0.0776	0.0606	0.0747	–	0.0748	0.0647	0.0529	0.055	0.0676	0.074	0.057	–	–	0.0688	–	–	–
MGESLRKGPRDYNPISSSICHLTNESDGHTTSLYGIGFGPFIITNKHLFRRNNGTLVVQSLHGVFKVKDTTTLQQHLVDGRDMIIIRMPKDFPPFPQKLKFREPQREERICLVTTNFQTKSMSSMVSDTSCTFPSGDGIFWKHWIQTKDGQCGSPLVSTRDGFIVGIHSASNFTNTNNYFTSVPKNFMELLTNQEAQQWVSGWRLNADSVLWGGHKVFMVKPEEPFQPVKEATQL [F6R]	0.0731	0.0565	0.0921	–	–	–	0.0756	–	0.0646	–	–	0.0892	–	–	–	–	0.075	–	–
MGESLFKGPRDYNPISSSICHFTNESDGHTTSLYGIGFGPFIITNKHLFRRNNGTLVVQSLHGVFKVKDTTTLQQHLVDGRDMIIIRMPKDFPPFPQKLKFREPQREERICLVTTNFQTKSMSSMVSDTSCTFPSGDGIFWKHWIQTKDGQCGSPLVSTRDGFIVGIHSASNFTNTNNYFTSVPKNFMELLTNQEAQQWVSGWRLNADSVLWGGHKVFMVKPEEPFQPVKEATQL [L22F]	0.0579	0.0565	0.0744	0.0454	0.0581	0.0621	0.0706	0.0584	0.0625	0.0569	0.0625	0.0632	0.0606	0.0615	–	–	0.0581	–	0.0529
MGESLFKGPRDYNPISSSICHLTNESDGHTTSLYGIGFPPFIITNKHLFRRNNGTLVVQSLHGVFKVKDTTTLQQHLVDGRDMIIIRMPKDFPPFPQKLKFREPQREERICLVTTNFQTKSMSSMVSDTSCTFPSGDGIFWKHWIQTKDGQCGSPLVSTRDGFIVGIHSASNFTNTNNYFTSVPKNFMELLTNQEAQQWVSGWRLNADSVLWGGHKVFMVKPEEPFQPVKEATQL [G39P]	0.0491	0.0403	0.0601	–	0.0388	0.0491	0.0456	0.037	0.0544	0.0375	0.0425	0.0447	–	0.0355	0.0431	–	0.0449	0.0403	–
MGESLFKGPRDYNPISSSICHLTNESDVHTTSLYGIGFGPFIITNKHLFRRNNGTLVVQSLHGVFKVKDTTTLQQHLVDGRDMIIIRMPKDFPPFPQKLKFREPQREERICLVTTNFQTKSMSSMVSDTSCTFPSGDGIFWKHWIQTKDGQCGSPLVSTRDGFIVGIHSASNFTNTNNYFTSVPKNFMELLTNQEAQQWVSGWRLNADSVLWGGHKVFMVKPEEPFQPVKEATQL [G28V]	0.06	0.0714	0.0633	–	0.0611	–	0.051	0.0543	0.0566	0.0629	0.0572	0.0696	0.0591	0.0703	–	0.0659	0.0677	–	–
MGESLFKGPRDYNPISSSICHLTNESDGHTLSLYGIGFGPFIITNKHLFRRNNGTLVVQSLHGVFKVKDTTTLQQHLVDGRDMIIIRMPKDFPPFPQKLKFREPQREERICLVTTNFQTKSMSSMVSDTSCTFPSGDGIFWKHWIQTKDGQCGSPLVSTRDGFIVGIHSASNFTNTNNYFTSVPKNFMELLTNQEAQQWVSGWRLNADSVLWGGHKVFMVKPEEPFQPVKEATQL [T31L]	0.0514	0.0473	0.0991	–	0.0748	0.107	0.0827	0.0602	0.0517	–	0.0635	0.0781	–	0.104	0.0593	0.0686	0.0452	–	–
MGESLFKGPRDYNPISSSIKHLTNESDGHTTSLYGIGFGPFIITNKHLFRRNNGTLVVQSLHGVFKVKDTTTLQQHLVDGRDMIIIRMPKDFPPFPQKLKFREPQREERICLVTTNFQTKSMSSMVSDTSCTFPSGDGIFWKHWIQTKDGQCGSPLVSTRDGFIVGIHSASNFTNTNNYFTSVPKNFMELLTNQEAQQWVSGWRLNADSVLWGGHKVFMVKPEEPFQPVKEATQL [C20K]	0.0583	0.0505	0.0446	–	0.0478	–	0.0526	0.042	0.0512	0.0472	0.0345	0.0479	0.0454	0.0535	0.0627	0.0484	0.0489	0.0474	0.0508
MGESLFKGPRDFNPISSSICHLTNESDGHTTSLYGIGFGPFIITNKHLFRRNNGTLVVQSLHGVFKVKDTTTLQQHLVDGRDMIIIRMPKDFPPFPQKLKFREPQREERICLVTTNFQTKSMSSMVSDTSCTFPSGDGIFWKHWIQTKDGQCGSPLVSTRDGFIVGIHSASNFTNTNNYFTSVPKNFMELLTNQEAQQWVSGWRLNADSVLWGGHKVFMVKPEEPFQPVKEATQL [Y12F]	0.0733	0.0795	0.0986	0.0641	–	0.0721	0.0706	0.0682	0.0513	0.0818	0.0572	0.0783	0.0719	0.0462	–	0.0634	0.0763	0.0829	–
